The campaign covered roughly 310,000 compounds. About 2,200 (0.71%) showed an effect of 50% or more. Effects have a minus sign here. The list shows a part of the results.
Biological target: human ether-à-go-go-related gene (hERG) potassium channel (human, UniProt Q12809)
Experiment: primary screen, population patch clamp on CHO cells stably expressing hERG

Sequence of human ether-à-go-go-related gene (hERG) potassium channel (Q12809 whole entry, looked up): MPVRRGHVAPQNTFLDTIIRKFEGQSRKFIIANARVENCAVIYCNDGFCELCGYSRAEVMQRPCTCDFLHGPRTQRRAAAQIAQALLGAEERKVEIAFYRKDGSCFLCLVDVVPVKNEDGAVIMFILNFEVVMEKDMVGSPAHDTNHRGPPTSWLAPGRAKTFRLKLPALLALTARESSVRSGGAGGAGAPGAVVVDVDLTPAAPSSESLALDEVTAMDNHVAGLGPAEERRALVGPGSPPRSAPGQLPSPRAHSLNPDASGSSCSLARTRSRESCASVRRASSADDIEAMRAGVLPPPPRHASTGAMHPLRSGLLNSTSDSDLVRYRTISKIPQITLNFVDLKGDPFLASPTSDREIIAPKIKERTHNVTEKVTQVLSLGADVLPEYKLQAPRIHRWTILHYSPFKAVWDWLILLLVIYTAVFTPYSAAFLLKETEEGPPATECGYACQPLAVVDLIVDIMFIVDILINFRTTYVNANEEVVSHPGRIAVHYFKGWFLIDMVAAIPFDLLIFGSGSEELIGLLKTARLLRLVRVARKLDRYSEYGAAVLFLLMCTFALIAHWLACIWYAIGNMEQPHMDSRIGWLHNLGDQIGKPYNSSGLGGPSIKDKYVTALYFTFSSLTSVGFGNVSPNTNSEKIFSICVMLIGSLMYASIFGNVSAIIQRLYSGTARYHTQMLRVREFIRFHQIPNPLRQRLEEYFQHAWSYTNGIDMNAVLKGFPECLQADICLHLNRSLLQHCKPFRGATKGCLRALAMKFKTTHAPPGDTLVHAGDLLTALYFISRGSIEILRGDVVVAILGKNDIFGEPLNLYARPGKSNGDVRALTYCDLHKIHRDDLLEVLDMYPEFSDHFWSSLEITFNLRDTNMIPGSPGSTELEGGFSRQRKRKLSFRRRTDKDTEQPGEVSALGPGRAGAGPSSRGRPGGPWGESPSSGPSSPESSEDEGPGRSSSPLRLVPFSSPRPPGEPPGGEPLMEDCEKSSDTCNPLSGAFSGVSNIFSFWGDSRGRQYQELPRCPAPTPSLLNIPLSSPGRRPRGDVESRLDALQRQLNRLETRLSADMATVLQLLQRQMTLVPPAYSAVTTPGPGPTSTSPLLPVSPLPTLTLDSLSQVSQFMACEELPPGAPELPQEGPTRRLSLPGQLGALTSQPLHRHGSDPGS

| SMILES | hERG current change (%, negative = inhibition) at 1uM |
| --- | --- |
| COc1ccc2oc(C(=O)OCC(=O)Nc3ccc(NC(C)=O)cc3)c(C)c2c1 | 10.9% |
| CCn1c(SCC(=O)Nc2nccs2)nnc1-c1ccc(S(=O)(=O)N2CCCCCC2)cc1 | 13.6% |
| COC(=O)c1cc(=O)c2cccc(OC)c2[nH]1 | 5.26% |
| Cc1ccc(C(=O)NNC(=O)c2cccs2)cc1 | 10.1% |
| Cc1noc(C)c1C(=O)N(CC(=O)Nc1ccc(Cl)c(C(F)(F)F)c1)Cc1ccco1 | 8.49% |
| O=C1COc2ccc(S(=O)(=O)N3CCCCCC3)cc2N1 | 18.3% |
| COCc1nc2ccccc2n1Cc1ccccc1C | 8.46% |
| CC(=O)c1sc(NC(=O)c2cc(=O)c3ccccc3o2)nc1C | 14.5% |
| Cc1cc(=O)n2ccsc2n1 | 0.473% |
| Cn1c(=O)[nH]c(=O)c2c1nc(N1CCCCC1)n2CCSc1nc2ccccc2o1 | 6.39% |
| CC1=CC(C)C2C(=O)N(c3ccccc3)C(=O)C2C1 (stereo not shown) | 10.8% |
| COc1ccc2oc(=O)c(C(=O)O)cc2c1 | 4.58% |
| Cc1nn(-c2ccccc2)c(N2CCCCC2)c1/C=N/NC(=O)c1ccncc1 | 8.23% |
| CC(=O)c1cc2c(cc1NC(=O)C1CC=CCC1C(=O)O)OCO2 (stereo not shown) | 8.03% |
| COc1cc(/C=C2\C(=N)N3N=C(S(C)(=O)=O)SC3=NC2=O)cc(OC)c1OCCOc1ccccc1C | 14.3% |
| CCN(CC)S(=O)(=O)c1ccc(C)c(NC(=S)N2CCN(C/C=C/c3ccccc3)CC2)c1 | 12.9% |
| NCC(=O)Nc1ccc(Br)cc1 | 13.6% |
| CN1CC(c2ccc(C#N)cc2)C2(COc3ccccc3C2=O)C12C(=O)Nc1ccccc12 (stereo not shown) | 3.87% |
| Cc1cccc(C)c1NS(=O)(=O)c1ccc(-c2cnc(C3CC3)o2)cc1 | 8.36% |
| CCCC1CC(C)(C(=O)Cn2[nH]c(=O)ccc2=O)OC1=O (stereo not shown) | 5.67% |
| O=C(CCCCCn1c(=S)[nH]c2cc3c(cc2c1=O)OCO3)NCCc1ccccc1 | 14% |
| NC(=O)c1sc2nccc(Nc3ccccc3)c2c1N | -1.77% |
| O=c1c2ccsc2ncn1Cc1ccc(Cl)cc1 | 7.79% |

| SMILES | hERG current change (%, negative = inhibition) at 1uM |
| --- | --- |
| N#Cc1ccccc1CN1C(=O)c2ccccc2S1(=O)=O | 16.5% |
| O=C(CSc1nnc(COc2ccccc2)o1)N1CCN(c2ccccc2)CC1 | 12.2% |
| COc1ccc(Br)c(/C=N/NC(=O)COc2ccc(-c3ccccc3)cc2)c1 | 8.4% |
| COc1ccc(C(=O)/C(C#N)=N/Nc2ccccc2[N+](=O)[O-])cc1 | 7.61% |
| C=CCn1c(SCC(=O)/C(C#N)=C(\C)N)nnc1C1CCCCC1 | 2.77% |
| O=C(CCCOc1ccccc1)NCCc1ccccc1 | 4.62% |
| CSc1ccccc1C(=O)NC1CC2CCC1C2 (stereo not shown) | 6.38% |
| C=CCOc1ccc(C2=NOC(C(=O)Nc3ccc4c(c3)OCCO4)C2)cc1OC (stereo not shown) | 14% |
| CCC(=O)NC(c1ccco1)c1cc(Cl)c2ccccc2c1O (stereo not shown) | 8.08% |
| O=C(Nc1ccc(S(=O)(=O)N2CCOCC2)cc1)c1ccccc1F | 14.1% |
| Cc1cccc(C)c1NC(=O)CSCC(=O)c1ccc(O)c(O)c1 | 7.69% |
| Cc1ccc(CS(=O)(=O)CCC(=O)N2CCOCC2)cc1 | 14.5% |
| Cc1noc(C)c1S(=O)(=O)N(CC(=O)NCc1ccc(Cl)cc1)c1ccc2c(c1)OCO2 | -13.9% |
| CC1=NN(C(N)=S)C(=O)C1N=Nc1cccc(C)c1 (stereo not shown) | 6.89% |
| COCCCn1c(SCC(=O)n2c(C)c(C)c3ccccc32)nnc1-c1ccoc1C | 7.76% |
| O=S(=O)(NCc1cccs1)c1ccc(Br)s1 | 8.54% |
| Cn1cc(/C=C2\SC(=O)N(c3ccc(O)cc3)C2=O)c2ccccc21 | 8.17% |
| COc1ccc(S(=O)(=O)Cc2ccc(C(=O)N3CCN(Cc4ccccc4)CC3)o2)cc1 | -13.2% |
| CN(C)S(=O)(=O)c1cccc(NC(=O)Cn2cnc3ccccc3c2=O)c1 | 14.3% |
| CN(C)S(=O)(=O)c1cccc(C(=O)Nc2ccccc2Cl)c1 | 1.91% |
| COc1cccc(CNc2ccc(S(N)(=O)=O)cc2)c1OCc1ccccc1F | 15.3% |
| O=[N+]([O-])c1ccc(N/N=C/c2cn(-c3ccccc3)nc2-c2ccccc2)cc1 | 15.4% |
| CC(=O)c1ccc2cccc3c2c1N=CN3C | 9.04% |

| SMILES | hERG current change (%, negative = inhibition) at 1uM |
| --- | --- |
| Nc1ccc2c(c1)sc1ccccc12 | -1.2% |
| Cc1ccc(-c2n[nH]c3c2CCC3)cc1 | 6.85% |
| CS(=O)(=O)O.Nc1ncnc2c1ncn2C1CCCC1 | -1.9% |
| O=C(NC1CCN(C(=S)NCCc2ccccc2)CC1)C1CCCCC1 | 9.36% |
| Cn1c(SCC(=O)NCc2ccc(F)cc2)ncc(C(=O)Nc2ccccc2)c1=O | 5.88% |
| C/C(=N\N=C\c1ccccc1)c1nnn(-c2nonc2N)c1C | 12.4% |
| CCCC(=O)NCC(c1cccs1)S(=O)(=O)c1ccc(C)cc1 (stereo not shown) | 14.6% |
| CCOC(=O)CC/C(C)=N\N=C1\SC(CC(=O)O)C(=O)N1c1ccccc1 (stereo not shown) | 9.29% |
| Cc1c(Cl)cccc1NC(=O)[C@@]1(CC(=O)O)CC(/C=C/c2ccccc2)=NO1 | 14.3% |
| CC(=O)c1cccc(NC(=O)C(OC(=O)/C=C/c2ccc3c(c2)OCO3)c2ccccc2)c1 (stereo not shown) | 1.74% |
| O=c1ccc2cc(S(=O)(=O)NCc3ccccc3)ccc2[nH]1 | 13.6% |
| Cc1ccc(-c2cn3cc([N+](=O)[O-])ccc3n2)cc1 | 1.75% |
| Cc1cc(Br)ccc1NC(=O)CN(C)C(=O)c1ccc2ccccc2n1 | 0.389% |
| CC1CCCC(C)N1C(=O)COC(=O)c1ccc[nH]c1=O (stereo not shown) | 5.03% |
| S=c1[nH]nc(C2CCCCC2)n1Cc1ccccc1 | -6.41% |
| c1cc2nnnn2nc1N1CCCCC1 | 10.1% |
| COc1ccc(S(=O)(=O)N2CCC(C(=O)N3CCCCCC3)CC2)cc1 | 5.86% |
| COc1cc(/C=C/C(=O)O)cc(S(=O)(=O)Nc2cccc(SC)c2)c1OC | 21% |
| CCCCNS(=O)(=O)c1ccc(S(=O)(=O)NCc2ccncc2)cc1 | 4.17% |
| Cc1noc(C)c1COc1cccc(C(=O)OCCOc2ccc(F)cc2)c1 | 12.5% |
| O=C(CNC(=O)c1ccccc1)NCC(=O)OCC(=O)c1ccc([N+](=O)[O-])cc1 | 6.84% |
| Cc1ccccc1-n1c(-c2ccco2)n[nH]c1=S | 15.6% |
| CC1(C)CN(c2ccc(C(=O)c3ccccc3)cc2)C1=O | 6.95% |

| SMILES | hERG current change (%, negative = inhibition) at 1uM |
| --- | --- |
| Cc1cc(C)cc(NC(=O)COC(=O)c2cc(C)oc2C)c1 | 2.35% |
| O=C(Nc1ccccc1F)C(c1ccccc1)c1ccccc1 | 14.3% |
| Cc1nnc(SCC(=O)Nc2ccc(S(=O)(=O)N3CCCC3)cc2)n1N | 13.1% |
| Br.CN(CC(O)C[NH+]1CCOCC1)S(=O)(=O)[O-] (stereo not shown) | 17% |
| COc1ccc(-n2c(C)cc(SC)c(C(C)=O)c2=S)cc1 | -3.9% |
| Cc1ccc(NC(=O)C2CCN(c3ncnc4c3nc3n4CCCCC3)CC2)cc1Cl | 3.62% |
| O=C1C(Cc2c[nH]c3ccccc23)NC(=S)N1Cc1ccccc1 (stereo not shown) | -14.4% |
| Nc1c(-c2ccccc2)cnn1-c1cccc([N+](=O)[O-])c1 | 7.6% |
| O=C(Cc1cccs1)N1CCN(S(=O)(=O)c2ccc(Cl)c(C(F)(F)F)c2)CC1 | 8.43% |
| CCCNC(=O)NCCC12CC3CC(CC(C3)C1)C2 | 9.13% |
| COCCNC(=O)c1cc2cc(Br)cc(OC)c2oc1=O | -0.621% |
| CCOC(=O)Cn1c(=O)oc2cc(S(=O)(=O)N(C)Cc3ccccc3)ccc21 | 6.29% |
| O=C(NCCCNC(=O)c1ccccn1)c1ccc(Br)cc1 | 13.2% |
| CCC1Oc2ccc(C)cc2N(CC(=O)NC2CCCCC2)C1=O (stereo not shown) | 6.69% |
| COc1ccc(C2CC(c3ccc(C)cc3)=NN2C(=O)CCC(=O)O)cc1OC (stereo not shown) | 10.4% |
| CC1(C)CC(=O)C=C(Nc2ccc(Cl)c(Br)c2)C1 | 0.929% |
| CCN(CC(=O)Nc1ccc(NC(C)=O)cc1)C(=O)c1cc2c(s1)CCCC2 | 7.65% |
| O=S(=O)(NCCCN1CCOCC1)c1ccc(Cl)cc1 | 15% |
| COc1ccc(/C=C2/Sc3ccc(C(=O)NCCCN4CCOCC4)cc3NC2=O)cc1OC | 12.3% |
| CCOc1ccc(C(=O)Nc2cc3c(cc2N2CCCC2)n(CC)c(=O)n3CC)cc1OCC | 8.98% |
| CCOC(=O)C1CCN(S(=O)(=O)c2c(C)noc2C)CC1 | -13.2% |
| CCn1c2ccccc2c2cc(NC(=O)C(=O)N3CCOCC3)ccc21 | 13.5% |
